From US20250051471A1, “Anti-Abcb1 Antibodies” (WILLIAM ROBERT ARATHOON LIVING TRUST DATED AUGUST 29, 2016, priority 2021, published 2025)
Entries after “also recorded” stand apart in the source; their conditions may differ.

Columns and labels:
human Red Blood Cells = experiment: Antibody binding to human red blood cells by flow cytometry; format: cell-based; conditions: FIG. 32
Procedure: Antibody binding to human and cynomolgus RBC was assessed by flow cytometry. Normal human and cynomolgus whole blood was obtained from BiolVT. RBC were prepared by centrifugation of whole blood aliquots (0.5 mL) for 5 min at 500xg. Supernatant (plasma) was removed, and RBC washed 3 times in D-PBS+1 mM EDTA. After the final wash, the RBC were resuspended in D-PBS+1 mM EDTA to a final volume of 0.5 mL. Washed RBC were then diluted in flow cytometry buffer (D-PBS+2% FBS+0.05% sodium azide) to 2% and dispensed at […] into 96-well plates. An equivalent volume ([…]) of antibody serially diluted in flow cytometry buffer to 2× final was added to the RBC, and the mixture incubated for 1 hour at room temperature. Next, RBC were washed 3 times with flow cytometry buffer and resuspended in 50 μL of Alexa Fluor®647 conjugated Fab fragment goat anti-human IgG diluted 1:200 in flow cytometry buffer. After 20 minutes at room temperature RBC were washed twice, resuspended in flow cytometry buffer and analyzed using an Invitrogen™ Attune™ NXT flow cytometer. […] Left panel, RBC are gated (R1) based on forward and side scatter. Middle panel, a second gate (R2) is applied to eliminate any remaining doublets or aggregates. Right panel, fluorescence of the R2 gated cells is assessed and a final gate (R3) is set using unstained RBC. Cells falling in the R3 gate are defined as “positive” for binding and reported as the percent (of R2 gated cells) that fall in the R3 gate. The results are presented at percent positive which represents the percent of RBC in the R3 gate.

N6/ADR cells [1] = experiment: Cytotoxicity potency assay (antibody titrated, vincristine constant); format: cell-based
Procedure: The relative potency of the samples was evaluated using N6/ADR cells. These cells expressed both ABCB1 and CD47 with the expression of CD47 ˜40-fold higher than ABCB1 as determined by staining with R-phycoerythrin (R-PE) conjugated, commercially available antibodies against ABCB1 (UIC2, Biolegend) and CD47 (CC2C6, Biolegend). This assay also examined the effect of antibodies on vincristine-induced cytotoxicity using the drug-resistant cell line, N6/ADR. However, in this assay format the concentration of vincristine was held constant while the ABCB1 x CD47 BsAbs (or isotype control antibodies) were serially diluted. This assay measured antibody IC50. Lower IC50 meant higher antibody potency.
The potency assay was performed as follows. Cells were plated in 0.05 mL of assay media at 5000 cells/well in white flat bottom 96-well tissue culture plates and incubated overnight at 37° C., 5% CO2. […] An equivalent volume (0.05 mL) diluted antibody/vincristine mixture was transferred to the N6/ADR cells and incubated at 37° C., in 5% CO^2. After 72 hours, plates were removed from the incubator and allowed to equilibrate to room temperature. Viability was assessed using the Promega® CellTiter-Glo® Luminescent Cell Viability Assay according to the manufacturer's recommended protocol.

N6/ADR cells [2] = experiment: Cytotoxicity screening assay (vincristine-induced cytotoxicity); conditions: N6ADR drug resistant cell-based leukemia assay
Procedure: The effect of antibodies on vincristine-induced cytotoxicity was evaluated using the drug-resistant N6/ADR cell line. In this assay, vincristine was serially diluted, while the ABCB1 x CD47 BsAbs (or isotype control antibodies) were used at a uniform, saturating concentration. The assay readout was vincristine IC50 in the presence or absence of antibodies. Inhibition of ABCB1 should result in a lower vincristine IC50.
The assay was performed as follows: cells were plated in 0.05 mL of assay media (RPMI-1640+10% FBS) at 5000 cells/well in white, flat bottom 96-well tissue culture plates and incubated overnight at 37° C., 5% CO2. The following day vincristine was prepared at 2X final assay concentration by 1:5 or 1:10 serial dilutions in screening assay media containing test antibodies or control antibodies at 100 μg/mL (2X final concentration), or valspodar, a small molecule ABCB1 inhibitor, at 7 pM (2X final concentration). An equivalent volume (0.05 mL) of the vincristine/antibody mixture was added to the N6/ADR cells and incubated at 37° C., in 5% CO2.
After 72 hours, plates were removed from the incubator and allowed to equilibrate to room temperature. Viability was assessed using the Promega® CellTiter-Glo® Luminescent Cell Viability Assay according to the manufacturer's recommended protocol.

MES-SA/Dx5 cells = experiment: In vivo anti-tumor effects on MES-SA/Dx5 multidrug resistance xenograft model; design: species or system athymic nude mice
Procedure: MES-SA/Dx5 cells were grown in RPMI-1640 supplemented with 10% FBS and 100 nM doxorubicin. Prior to implant cells were washed three times with D-PBS and resuspended in the same. Resuspended cells were mixed with an equal volume of Matrigel and xenografts were established by sub-cutaneous injection of 0.5×10^6 tumor cells into 5-8-week-old female athymic nude mice. Tumors were measured three times a week using a calibrated digital caliper, and tumor volumes (TV) were calculated as per the formula: TV=/*L*S*S, where L is the long axis and s is the short axis of the tumor. Once tumors reached 100-150 mm^3, mice were randomized into twelve groups of five mice each-(i) Control isotype IgG1 3 mg/kg, (ii) Control isotype IgG1 3 mg/kg and 20 mg/kg of paclitaxel, (iii) KNJYBisP1.1 3 mg/kg, (iv) KNJYBisP1.1 3 mg/kg and 20 mg/kg of paclitaxel, (v and vi) 15D3 HIR2/KT14 KbR1/B1.89v1.huL1(KV2) Bispecific 3 mg/kg, (vii and viii) 15D3 HIR2/KT14 KbR1/B1.89v1.huL1(KV2) Bispecific 3 mg/kg and 20 mg/kg of paclitaxel, (ix) 15D3hmz16-1 KK/KT14 DD/MRK16v4a1 Bispecific 3 mg/kg, (x) 15D3hmz16-1 KK/KT14 DD/MRK16v4a1 Bispecific 3 mg/kg and 20 mg/kg of paclitaxel, (xi) 15D3 HIR2/KT14 KbR1/B1VL6/CDR3v2a Bispecific 3 mg/kg, (xii) 15D3 HIR2/KT14 KbR1/B1VL6/CDR3v2a Bispecific 3 mg/kg and 20 mg/kg of paclitaxel.
Antibody and paclitaxel were dosed intraperitoneally twice a week for two consecutive weeks. […]

MES-SA/Dx5/ADR cells = experiment: In vivo anti-tumor effects on MES-SA/Dx5/ADR multidrug resistance xenograft model; design: species or system athymic nude mice
Procedure: Prior to implant cells were washed three times with D-PBS and resuspended in the same.
Paclitaxel or vehicle was dosed four hours after the antibody.
Statistics: Tumor volume and body weights were compared between different experimental groups using exact one-way analysis of variance (ANOVA). Kaplan-Meier survival curves were compared between different treatment groups using the log-rank (Mantel-Cox) test. Statistical analyses were performed using Graph Pad Prism (GraphPad, San Diego, CA, USA) software. The level of significance was set at p<0.05 for all analyses.

B1: KB1-1420: humanized ABCB1XCD47 bispecific antibody, HIR2/KbR1 Fc, B1.89v1.huL1(KV2) common light chain (antibody)
heavy 1: EVQLVESGGVVVQPGGSLRLSCAASGFTFSRYTMSWVRQAPGKGLEWVATISSGGGNTYYPDSVKGRFTVSRDNSKNSLYLQMNSLRTEDTALYYCARYGAGDAWFAYWGQGTLVTVSSASTKGPSVFPLAPSSKSTSGGTAALGCLVKDYFPEPVTVSWNSGALTSGVHTFPAVLQSSGLYSLSSVVTVPSSSLGTQTYICNVNHKPSNTKVDKRVEPKSCDKTHTCPPCPAPELLGGPSVFLFPPKPKDTLMISRTPEVTCVVVDVSHEDPEVKFNWYVDGVEVHNAKTKPREEQYNSTYRVVSVLTVLHQDWLNGKEYKCKVSNKALPAPIEKTISKAKGQPREPQVCTLPPSREEMTKNQVSLSCAVKGFYPSDIAVEWESNGQPENNYKTTPPVLDSDGSFVLVSKLTVDKSRWQQGNVFSCSVMHEALHNHYTQKSLSLSPG
heavy 2: QVQLVQSGAEVKKPGASVKVSCKASGYTFTNYNMHWVRQAPGQRLEWMGTIYPGNDDTSYNQKFKDRVTITADTSASTAYMELSSLRSEDTAVYYCARGGYRAMDYWGQGTLVTVSSASTKGPSVFPLAPSSKSTSGGTAALGCLVKDYFPEPVTVSWNSGALTSGVHTFPAVLQSSGLYSLSSVVTVPSSSLGTQTYICNVNHKPSNTKVDKRV[human IgG1 Fc with changes omitted]
light: DIVMTQSPLSLPVTPGEPASISCRSSQTIVHSNGNTYLEWYLQKPGQSPQLLIYKVSKRFSGVPDRFSGSGSGTDFTLKISRVEAEDVGVYYCFQASHFPRTFGQGTKLEIKRTVAAPSVFIFPPSDEQLKSGTASVVCLLNNFYPREAKVQWKVDNALQSGNSQESVTEQDSKDSTYSLSSTLTLSKADYEKHKVYACEVTHQGLSSPVTKSFNRGEC
binding to human red blood cells compared to anti-CD47 monoclonal antibody 5F9 (human Red Blood Cells): negligible binding | potency increasing cytotoxicity (N6/ADR cells [1]): potency similar to that of the bispecific antibody KBisP1.1 | in vitro potency (cell killing) (N6/ADR cells [2]): significant in vitro potency | tumor growth inhibition / activity as a single agent (MES-SA/Dx5 cells; 3 mg/kg i.p., listed as 15D3 HIR2/KT14 KbR1/B1.89v1.huL1 (KV2) hmz LC, 3 mg/kg): significantly inhibited tumor growth; also recorded: efficacious; also recorded: significant single agent activity | tumor growth inhibition in combination with paclitaxel (MES-SA/Dx5 cells; 3 mg/kg plus paclitaxel 20 mg/kg): significantly inhibited tumor growth | single agent efficacy (MES-SA/Dx5/ADR cells): efficacious as a single agent | survival (MES-SA/Dx5/ADR cells; with and without paclitaxel): significantly enhances survival | enhancement of paclitaxel-mediated cell killing (MES-SA/Dx5/ADR cells; with paclitaxel): enhances paclitaxel-mediated cell killing
